# According to paper PMC4242493:
# The other results are listed elsewhere or left out. The list includes weakly bound sequences.
# Target: MaxL homodimer (UniProt P61244)
# Assay: universal protein-binding microarray (PBM)
# Details: PBS-based mixture, 10 nM His-tagged protein dimer, 2% milk, 200 ng/uL BSA, 50 ng/uL salmon testes DNA, 0.02% TX-100; detection with Alexa 488 anti-His …; high values mean tight binding; most listed sequences are background and not binding sites; double strand, one strand shown
# Chain of UniProt P61244 (P61244 whole entry): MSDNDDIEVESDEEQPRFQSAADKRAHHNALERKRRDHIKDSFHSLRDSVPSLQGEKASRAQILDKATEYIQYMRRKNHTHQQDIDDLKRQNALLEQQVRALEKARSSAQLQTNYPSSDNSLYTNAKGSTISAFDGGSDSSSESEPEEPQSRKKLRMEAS
row,Sequence,binding signal (normalized occupancy)
1,TCAGAAAA,0.0729
2,ATGGAGGG,0.0787
3,CACCAACA,0.0785
4,TAAACTGA,0.0757
5,AGGGGTAG,0.082
6,AGACACCT,0.0786
7,CACTCTCA,0.0827
8,ATGGCAGC,0.0797
9,TCTAAAGA,0.072
10,ACTAGTAC,0.0749
11,CTTAGGTC,0.0711
12,ATTAAAAG,0.0674
13,TAACCGGA,0.0702
14,CTCAGGCA,0.0739
15,ACTGTGCT,0.0715
16,AGAGTAAC,0.0759
17,CAATTCTC,0.0735
18,AACCTTAG,0.0729
19,AGGGGTGA,0.082
20,AACGATCT,0.0769
21,AGGATAGC,0.0766
22,AATCAGCC,0.069
23,ACACCGAA,0.078
24,ATATAAGA,0.0838
25,GCTTGTAA,0.0753

row,Sequence,binding signal (normalized occupancy)
1,AGGGCCCT,0.0684
2,TACCTTGA,0.0849
3,CACTAGCC,0.0749
4,CACAGTCA,0.0797
5,GCTTTCCA,0.0685
6,ACGATTCA,0.0773
7,GGTGTGCA,0.0858
8,CATGCAAA,0.0845
9,CTGGGTGC,0.0787
10,CCTCGAAG,0.0685
11,GAATAACC,0.0756
12,CTGTGAGC,0.0807
13,CTCAGCTA,0.0685
14,AGACCGTC,0.0782
15,CAAAATAC,0.0809
16,GTCACTTA,0.0732
17,AGTCCTAA,0.0726
18,ACTGATAT,0.0787
19,CGCAACAA,0.072
20,ACTATCGC,0.0742
21,AGCATTGC,0.0766
22,AGAAGGAC,0.0703
23,AATGACCC,0.0851
24,CCTTTTGC,0.0701
25,GACAAGGA,0.0744

row,Sequence,binding signal (normalized occupancy)
1,CGCTTTCC,0.067
2,GCATTGGC,0.0747
3,ACCAATCC,0.0693
4,ACGCTGGG,0.0772
5,ACCAGAGT,0.0713
6,CGATGCGA,0.0731
7,CGACACTA,0.0759
8,ATCGCATC,0.0742
9,ATAATGCA,0.0838
10,AATCTCAC,0.0766
11,GGTTCGCA,0.0757
12,AGAAAGGA,0.0795
13,GACTCACC,0.0746
14,TATTCCGA,0.072
15,AATACGTC,0.0844
16,CCATAGCA,0.0766
17,TAGACTAA,0.0729
18,GCGATTTA,0.0734
19,ACTCATGC,0.0969
20,CTGGCCCA,0.068
21,ATCCGAAG,0.0697
22,CGTCCACA,0.0803
23,TAAGTCTA,0.0772
24,CGAGCGTC,0.0698
25,AGATTCCC,0.0779

row,Sequence,binding signal (normalized occupancy)
1,ACATTGCA,0.0807
2,GCTAACTA,0.0678
3,ACCGACAT,0.0842
4,ATCACGTC,0.0875
5,CTACAGTA,0.0804
6,ATGATATG,0.0845
7,GAGGGCGC,0.0712
8,CGCAATAC,0.0776
9,CTTTAAAC,0.0744
10,CATCAAGA,0.0769
11,AAACGTAC,0.074
12,ATTTCCAA,0.0771
13,CCGTTAAA,0.0712
14,AAGGTACG,0.0718
15,AATCAGGT,0.0742
16,CTCGTGTA,0.103
17,CACATCCA,0.0871
18,ACCGCTCA,0.0747
19,AATGTAGG,0.0765
20,TACAGGTA,0.0721
21,AATAACGA,0.0752
22,CGCTTTAC,0.0725
23,AAAATTGT,0.0706
24,AGCCGCGG,0.0667
25,AACTGAGC,0.0707

row,Sequence,binding signal (normalized occupancy)
1,ACGACCCC,0.0759
2,CCTCTCCG,0.0668
3,ATGCCAAT,0.0783
4,AGAAAGTA,0.0718
5,CCAGGACG,0.067
6,ACGTCGCG,0.0767
7,AAACCCCG,0.0809
8,CCCTCAGC,0.0733
9,CAGGAATG,0.0756
10,ATCCACCA,0.0802
11,GGTAGCCA,0.0732
12,GGTTATAA,0.0816
13,CTCTTGGC,0.0732
14,AATGTGGG,0.0907
15,AGGTATTG,0.0765
16,GCAGGAGC,0.0659
17,ATTGTCGC,0.0746
18,TATTACAA,0.0802
19,CACGGATC,0.0749
20,AGGTATTC,0.0792
21,CAGGCCCA,0.0716
22,CCCCCGCC,0.0803
23,CATAGGAC,0.0862
24,CTTTTGAA,0.0685
25,AGGCTCTC,0.0713

row,Sequence,binding signal (normalized occupancy)
1,ATCCCTTG,0.0765
2,GAGAGGAC,0.0723
3,GGCGACGA,0.0664
4,AGGTATAG,0.0766
5,TCCCTACA,0.0783
6,CATGGGTC,0.0915
7,CTCCCCTA,0.0765
8,GCCCGGAC,0.0693
9,CGTGTTTA,0.0906
10,TAATCTCA,0.0735
11,GTTAGAAA,0.0757
12,AGCTCGCA,0.0718
13,ACCATACT,0.0809
14,CGGCCCGA,0.0673
15,ACTCGCAA,0.0713
16,AACATGTG,0.184
17,GCAACAGC,0.071
18,CAATGGTG,0.073
19,CAGCGAAA,0.0644
20,GCCAGCAA,0.0729
21,GCCCGATA,0.0777
22,GGTCCTAC,0.0703
23,CGAACTAC,0.0757
24,AAATCTTG,0.0741
25,AATTTAAG,0.0704

row,Sequence,binding signal (normalized occupancy)
1,CCCAATGA,0.0746
2,GGCGCGAC,0.0676
3,ACGACCGA,0.0735
4,GCACCTGA,0.0804
5,ACTTCGCG,0.0677
6,CGAGAAAA,0.0723
7,TACTTAAA,0.0723
8,AACTGGTC,0.0737
9,GTAGTAAA,0.0757
10,CAATTCAA,0.0746
11,GTCGGCAA,0.0674
12,ACCTCTGG,0.0714
13,AGTTTGCA,0.0812
14,TTAAGGAA,0.0714
15,AGTGTAAT,0.0794
16,AGTACCTG,0.0747
17,ACTATGTC,0.078
18,CCCCAGCG,0.0723
19,CCGACATA,0.083
20,ATGCGTTG,0.0816
21,GTGATGTA,0.0832
22,CCCGCGCA,0.0768
